From publication PMC6212790
The list shows a part of the results. At the low end of the ranking the order means little.

Target: T1, GST-Rok-C97-191 (UniProt O34857)
T1 sequence: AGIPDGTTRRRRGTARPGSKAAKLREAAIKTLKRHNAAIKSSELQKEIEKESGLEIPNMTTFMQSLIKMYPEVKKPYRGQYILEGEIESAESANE
Assay: protein binding microarray;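 also: rank score from −0.5 (least bound) to 0.5 (best bound)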
Conditions: Rok is a gene silencer of Bacillus subtilis; high values mean tight binding; most listed sequences are background and not binding sites; double strand, one strand shown

Sequence	binding signal [E-score]
AGTCTCAC	-0.119
AATTTACC	0.345
AGTAGGAG	0.094
ACATATGC	0.153
AATAGTAA	0.338
CCCTTACG	-0.155
CACACATC	-0.184
GAACACTC	-0.0181
CACCGACG	-0.171
CCTGTTAG	-0.0254
TAACTACA	0.423
AGGTATAC	0.19
CCAGGGGC	-0.361
GACAAAGA	-0.148
GCTTGTCC	-0.189
ACCAGTGG	-0.116
CGCTGCCG	-0.359
CGTTGTAG	0.203
ATGGCCTA	-0.00532
CTATAGGC	-0.0221
ATCAAGAC	-0.00216
CAAGTCAC	-0.185
ATAATCAA	0.149
ACTCTTCA	0.0616
GGAGGGAA	-0.24

Sequence	binding signal [E-score]
AAAAGCCT	-0.25
AAGGAGGT	-0.151
TGCCGAAA	-0.0675
CCGCCTAC	-0.125
CGTTCGGA	-0.066
AACAATGT	0.268
AGTCTGAT	0.0417
TACGAAAA	0.0466
ACGAAACA	0.162
TAGACGAA	-0.0468
CGGATCAC	-0.124
ATGCTGCG	-0.0967
CGTGGAAA	-0.0677
GAGAACAA	-0.0435
ATCTCTTG	0.118
GTTAAGGA	0.0416
AGCCGACA	-0.172
ACCATATC	0.239
CAGTCCCC	-0.312
CAACAAGC	-0.0233
CTGACGTC	-0.208
AAGAGCAT	-0.182
AGGCTGGG	-0.256
AATGCTAT	0.21
GGGATGTA	0.169

Sequence	binding signal [E-score]
ACTCTGAA	-0.133
AACCGCGT	-0.0223
GCAGTCCC	-0.226
GATACTTA	0.158
ATGGGAAG	-0.194
CCCAGAAA	-0.192
CTTACCTC	0.0439
AAATTTAT	0.292
CGTTCAAC	-0.0993
ACTGTGCG	-0.106
ATTTTAGG	0.193
ACAGTGGT	-0.0396
ACAACATC	-0.0659
CGTCACGC	-0.156
ACGAGCCT	-0.114
CAAGGCTA	-0.188
AGCATGAC	-0.187
CGTAGGTC	-0.234
AGATAACA	0.279
GTCGTTGA	0.0109
CTAAAGAC	-0.046
ATCGTAAG	0.0194
AGTGATTG	-0.145
CCAAGAGG	-0.117
CTCAACAC	0.006

Sequence	binding signal [E-score]
CCCATTCA	-0.252
CGACATAG	0.00977
AGCTGACT	0.0109
GAGGTCAA	-0.0196
AAACCAAC	-0.0784
TCAACGAA	0.04
TCCGTACA	0.0658
GTTGCTGA	-0.0618
AGAGCAGA	-0.0404
AACACGAG	0.00492
CACGTCAG	-0.195
ACACTGCA	0.0245
AACTGTAT	0.0405
CGGTTCCC	-0.207
GGCTATAA	-0.00372
AGCATGAA	0.0324
CAGTCCGG	-0.236
CCCAATCA	-0.378
ACTGTCAT	0.00202
GGCCACAA	-0.134
AACCACGC	-0.218
AATCAGTC	-0.116
AGATACCC	-0.0435
CGAAATCG	0.0639
CAACGAGG	-0.207

Sequence	binding signal [E-score]
CACCGGTC	-0.204
GCAGTACA	0.145
TCACCAAA	0.12
ACAAAAAA	0.136
CGCCGCTC	-0.333
TCTCTAAA	-0.109
CCTGTGTC	-0.0736
AACTGCAG	0.14
CATAGAAC	0.02
CGCTCGGA	-0.29
ATACGAGA	-0.0415
ACCCCTTG	-0.18
CTGCAAAG	-0.00253
GGGTTTTA	0.0754
GGCCAACC	-0.234
CTGTCATC	0.0136
AGTATTAA	0.306
AACTCCGG	0.0581
CCGCATAG	-0.133
ACCGGTTA	0.0683
TAGTTAAA	0.281
CTCCCTTA	-0.0378
CTGGGAGA	-0.0538
AGAGTTCC	-0.0293
AGTTAAGC	-0.107

Sequence	binding signal [E-score]
ACTCTTAA	0.00552
AGTCGCCG	-0.175
ATGAATGC	0.0811
ACACCCGT	-0.0646
AATGAGGT	0.0652
CGGTTCTC	0.0914
TAGCCCAA	-0.0821
AGATTGAT	0.0235
GCAAATTA	0.22
TAACACGA	0.00599
CATAGAAA	0.105
CATTTCTA	0.306
GATCACAA	-0.217
TCTTGGCA	-0.0228
AACCGGTA	0.182
AGTCCACC	-0.304
CGTTCTAA	0.116
ACGATCGG	0.132
CGCGCCTA	-0.142
CACGCCAG	-0.0945
AGACATGG	-0.234
CATAGCCC	-0.0723
ATCGATCC	-0.0605
ATCCCATC	0.118
GTACGCAA	0.0401

Sequence	binding signal [E-score]
CCTTATGC	-0.116
GAGAGCAA	-0.203
CGAGGAGC	-0.311
CATGCCTC	-0.195
ATTTCGTA	0.212
AAATACTT	0.195
TACTCCCA	0.0915
CCCATGAA	-0.00596
CGCCCCCA	-0.0863
AATCGGTG	-0.0998
CTCAGGCC	-0.23
ATCATGTG	0.0404
GTCATCCA	-0.184
GGCTTCAA	0.0213
ATTCATAG	0.274
AGGCCGGG	-0.365
AACACACA	-0.0212
AAGTCAGT	0.0416
CCCCCGGA	-0.283
AGCTCGTC	-0.149
CGAACTAA	0.135
CTTCGGAA	-0.0432
